# Experimental data from PMC9816411, “Host-derived chimeric peptides clear the causative bacteria and augment host innate immunity during infection: A case study of HLB in citrus and fire blight in apple” (Frontiers in Plant Science, 2022).
# System: E. coli BL21
# Settings: E. coli BL21, 5 × 10^5 cfu, 24 h with peptide
# Source text: . The bioluminescence assay ([Paciello et al., 2013]) helps measure the number of viable bacterial cells in a culture based on the quantitation of the ATP present. It should be noted that ATP is present in live (metabolically active) cells, but not in dead cells. Bactericidal activity was expressed in terms of IC50 and IC99–MIC. Table 2 also includes the IC50 and IC99–MIC of the single units A–E and those of the equimolar mixtures of A (11P-1) and C (11P-3). Chimeras AC and CD were the most promising antibacterial agents. […] We also measured bacterial cell lysis by the different peptides using the NanoLuc luciferase assay. For this assay, E. coli BL21 (pACYC184-nLuc) was treated with 10 µM peptides and the luciferase activity was monitored in the supernatant at 15 min and at 1 h post-treatment. […] The measured luciferase activity is proportional to the number of lysed bacterial cells. […] After incubation with peptides and determining the ODs, the bacterial cultures in polystyrene plates were carefully resuspended to homogeneity by shaking in a plate reader incubator for 5 min at 100 rpm. […] Bioluminescence was measured using a plate reader (Synergy HTX; BioTek). […]
structure (smiles),measurement,setting,value
CC(C)C[C@@H]1NC(=O)[C@H](CCCNC(=N)N)NC(=O)[C@H](CCCNC(=N)N)NC(=O)[C@@H](NC(=O)[C@@H](N)CCCCN)CSSC[C@@H](C(=O)N[C@@H](CCCNC(=N)N)C(=O)NCC(=O)N[C@@H](CCCNC(=N)N)C(=O)N[C@@H](CCC(N)=O)C(=O)O)NC(=O)[C@H](Cc2ccc(O)cc2)NC(=O)[C@H]([C@@H](C)O)NC(=O)[C@H](C(C)C)NC(=O)[C@@H]2CSSC[C@H](NC1=O)C(=O)N[C@@H](Cc1ccc(O)cc1)C(=O)N[C@@H](CCCCN)C(=O)N[C@@H](CCC(N)=O)C(=O)N[C@@H](CCCNC(=N)N)C(=O)N2 [L19GA],IC50,dose–response (bioluminescence vs. peptide concentration) fitted to Hill's equation,1490 ± 220 nM
same,IC99 (~MIC),dose–response fitted to Hill's equation,1.88 ± 0.29 µM
